Results reported in the supplement of paper PMC4967469.
By IC50 is meant the dose at which the fit gives 50% viability; a fit beyond the top or the lowest dose is shown as a bound at that dose. AUC is the area under the same curve over the 256-fold range up to the top dose, as a fraction: 1 means no effect, lower means more sensitive. For part of these data: Any top dose called inferred was calculated from the reported fits.

Experiments:
Experiment in all cases: Viability of human cancer cell lines after 72 h of drug (GDSC screen)
XMD15-27 = compound: C=CC(=O)Nc1ccc(C(=O)c2sc(Nc3ccc(N4CCN(C)CC4)cc3OC)nc2N)cc1 [XMD15-27]; details: top dose 10.24 µM; top dose inferred
Method: (§1)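 Human cancer cell lines in 384-well plates, medium with 10% serum, drug for 72 h over a 256-fold dose range (nine 2-fold or five 4-fold steps up to the top dose). Adherent lines were fixed and stained with the nucleic acid dye Syto60, suspension lines read with resazurin; signal relative to control wells, capped at 0 and 100%. One two-parameter sigmoid per drug and line, fitted in a mixed model over all curves with the slope shared within a line.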

SL 0101-1 = compound: CC(=O)O[C@@H]1[C@@H](OC(C)=O)[C@@H](O)[C@H](Oc2c(-c3ccc(O)cc3)oc3cc(O)cc(O)c3c2=O)O[C@H]1C [SL 0101-1]; details: top dose 10 µM; top dose inferred
Method: as §1

Temsirolimus = compound: CO[C@H]1C[C@@H]2CC[C@@H](C)[C@@](O)(O2)C(=O)C(=O)N2CCCC[C@H]2C(=O)O[C@H]([C@H](C)C[C@@H]2CC[C@@H](OC(=O)C(C)(CO)CO)[C@H](OC)C2)CC(=O)[C@H](C)/C=C(\C)[C@@H](O)[C@@H](OC)C(=O)[C@H](C)C[C@H](C)/C=C/C=C/C=C/1C [Temsirolimus]; details: top dose 0.2 µM
Method: as §1

BICR78 (head and neck, adherent) showed an AUC (XMD15-27) of 0.983, an IC50 (XMD15-27) greater than 10.2 µM and an AUC (SL 0101-1) of 0.975. It also gave an IC50 (SL 0101-1) greater than 10 µM, an AUC (Temsirolimus) of 0.8 and an IC50 (Temsirolimus) of 0.115 µM.
For OVCA433 (ovary, adherent), the AUC (XMD15-27) was 0.984, the IC50 (XMD15-27) was greater than 10.2 µM and the AUC (SL 0101-1) was 0.982. The IC50 (SL 0101-1) was greater than 10 µM, the AUC (Temsirolimus) was 0.719 and the IC50 (Temsirolimus) was 0.0565 µM.
UWB1.289 (ovary, adherent) showed an AUC (XMD15-27) of 0.979, an IC50 (XMD15-27) greater than 10.2 µM and an AUC (SL 0101-1) of 0.979. The IC50 (SL 0101-1) was greater than 10 µM, the AUC (Temsirolimus) was 0.86 and the IC50 (Temsirolimus) was greater than 0.2 µM.
COR-L321 (lung, suspension) showed an AUC (XMD15-27) of 0.945, an IC50 (XMD15-27) greater than 10.2 µM and an AUC (SL 0101-1) of 0.98. The IC50 (SL 0101-1) was greater than 10 µM, the AUC (Temsirolimus) was 0.97 and the IC50 (Temsirolimus) was greater than 0.2 µM.
L-428 (Hodgkin lymphoma, suspension) gave an AUC (XMD15-27) of 0.993, an IC50 (XMD15-27) greater than 10.2 µM and an AUC (SL 0101-1) of 0.991. It also gave an IC50 (SL 0101-1) greater than 10 µM, an AUC (Temsirolimus) of 0.791 and an IC50 (Temsirolimus) of 0.0779 µM.
In the case of OAW-42 (ovary, adherent), the AUC (XMD15-27) is reported as 0.985, the IC50 (XMD15-27) is reported as greater than 10.2 µM and the AUC (SL 0101-1) is reported as 0.984. For the same cell line, the IC50 (SL 0101-1) was greater than 10 µM, the AUC (Temsirolimus) was 0.854 and the IC50 (Temsirolimus) was 0.179 µM.
Work on ESO26 (oesophagus, adherent) yielded an AUC (XMD15-27) of 0.912, an IC50 (XMD15-27) greater than 10.2 µM and an AUC (SL 0101-1) of 0.982. The IC50 (SL 0101-1) was greater than 10 µM, the AUC (Temsirolimus) was 0.872 and the IC50 (Temsirolimus) was 0.172 µM.
In the case of LNZTA3WT4 (glioma, adherent), the AUC (XMD15-27) is reported as 0.989, the IC50 (XMD15-27) is reported as greater than 10.2 µM and the AUC (SL 0101-1) is reported as 0.989. For the same cell line, the IC50 (SL 0101-1) was greater than 10 µM, the AUC (Temsirolimus) was 0.851 and the IC50 (Temsirolimus) was 0.149 µM.
C-4-I (cervix, adherent) was tested, and the AUC (XMD15-27) was 0.986, the IC50 (XMD15-27) was greater than 10.2 µM and the AUC (SL 0101-1) was 0.986. The IC50 (SL 0101-1) was greater than 10 µM, the AUC (Temsirolimus) was 0.857 and the IC50 (Temsirolimus) was 0.186 µM.
WM793B (melanoma, adherent) was tested, and the AUC (XMD15-27) was 0.966, the IC50 (XMD15-27) was greater than 10.2 µM and the AUC (SL 0101-1) was 0.979. It also gave an IC50 (SL 0101-1) greater than 10 µM, an AUC (Temsirolimus) of 0.648 and an IC50 (Temsirolimus) of 0.0337 µM.
With SKN (uterus, adherent) the AUC (XMD15-27) was 0.889, the IC50 (XMD15-27) was greater than 10.2 µM and the AUC (SL 0101-1) was 0.975. It also gave an IC50 (SL 0101-1) greater than 10 µM, an AUC (Temsirolimus) of 0.417 and an IC50 (Temsirolimus) of 0.00704 µM.
In the case of UACC-257 (melanoma, adherent), the AUC (XMD15-27) is reported as 0.979, the IC50 (XMD15-27) is reported as greater than 10.2 µM and the AUC (SL 0101-1) is reported as 0.979. The IC50 (SL 0101-1) was greater than 10 µM, the AUC (Temsirolimus) was 0.904 and the IC50 (Temsirolimus) was greater than 0.2 µM.
Work on “GR-ST (lymphoblastic leukaemia, suspension)” yielded an AUC (XMD15-27) of 0.945, an IC50 (XMD15-27) greater than 10.2 µM and an AUC (SL 0101-1) of 0.969. It also gave an IC50 (SL 0101-1) greater than 10 µM, an AUC (Temsirolimus) of 0.585 and an IC50 (Temsirolimus) of 0.0225 µM.
“CPC-N (small cell lung carcinoma, suspension)” gave an AUC (XMD15-27) of 0.985, an IC50 (XMD15-27) greater than 10.2 µM and an AUC (SL 0101-1) of 0.984. For the same cell line, the IC50 (SL 0101-1) was greater than 10 µM, the AUC (Temsirolimus) was 0.939 and the IC50 (Temsirolimus) was greater than 0.2 µM.
With “NCI-H446 (small cell lung carcinoma, semi-adherent)” the AUC (XMD15-27) was 0.96, the IC50 (XMD15-27) was greater than 10.2 µM and the AUC (SL 0101-1) was 0.985. For the same cell line, the IC50 (SL 0101-1) was greater than 10 µM, the AUC (Temsirolimus) was 0.89 and the IC50 (Temsirolimus) was greater than 0.2 µM.
For SU-DHL-16 (B-cell lymphoma, suspension), the AUC (XMD15-27) was 0.967, the IC50 (XMD15-27) was greater than 10.2 µM and the AUC (SL 0101-1) was 0.996. For the same cell line, the IC50 (SL 0101-1) was greater than 10 µM, the AUC (Temsirolimus) was 0.548 and the IC50 (Temsirolimus) was 0.0163 µM.
Cell Line Hs683 (glioma, adherent) has an AUC (XMD15-27) of 0.984, an IC50 (XMD15-27) greater than 10.2 µM and an AUC (SL 0101-1) of 0.962. It also gave an IC50 (SL 0101-1) greater than 10 µM, an AUC (Temsirolimus) of 0.764 and an IC50 (Temsirolimus) of 0.0735 µM.
Cell Line “NCI-H661 (large cell lung carcinoma, adherent)” has an AUC (XMD15-27) of 0.978, an IC50 (XMD15-27) greater than 10.2 µM and an AUC (SL 0101-1) of 0.943. The IC50 (SL 0101-1) was greater than 10 µM, the AUC (Temsirolimus) was 0.765 and the IC50 (Temsirolimus) was 0.088 µM.
For MOG-G-CCM (glioma, adherent), the AUC (XMD15-27) was 0.964, the IC50 (XMD15-27) was greater than 10.2 µM and the AUC (SL 0101-1) was 0.982. The IC50 (SL 0101-1) was greater than 10 µM, the AUC (Temsirolimus) was 0.529 and the IC50 (Temsirolimus) was 0.0152 µM.
CCF-STTG1 (glioma, adherent) was tested, and the AUC (XMD15-27) was 0.988, the IC50 (XMD15-27) was greater than 10.2 µM and the AUC (SL 0101-1) was 0.988. It also gave an IC50 (SL 0101-1) greater than 10 µM, an AUC (Temsirolimus) of 0.882 and an IC50 (Temsirolimus) greater than 0.2 µM.
With LS-411N (large intestine, adherent) the AUC (XMD15-27) was 0.973, the IC50 (XMD15-27) was greater than 10.2 µM and the AUC (SL 0101-1) was 0.978. For the same cell line, the IC50 (SL 0101-1) was greater than 10 µM, the AUC (Temsirolimus) was 0.964 and the IC50 (Temsirolimus) was greater than 0.2 µM.
In the case of SW780 (bladder, adherent), the AUC (XMD15-27) is reported as 0.986, the IC50 (XMD15-27) is reported as greater than 10.2 µM and the AUC (SL 0101-1) is reported as 0.979. For the same cell line, the IC50 (SL 0101-1) was greater than 10 µM, the AUC (Temsirolimus) was 0.405 and the IC50 (Temsirolimus) was 0.00669 µM.
